Results as given in the supplement of paper PMC8728848.
Some of the results follow.

Tests used:
Assay in all cases: glycan array binding signal (z-score within array); higher = stronger binding
Details in all cases: glycan notation: IUPAC condensed, linker removed
Fuc(a1-2)Gal = target: Fuc(a1-2)Gal
How it was run: (§1)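 Negative Z-scores can be read as non-binding. The Z-score is calculated within each array and then averaged across arrays of one protein sequence at different concentrations or buffers and across linkers. Arrays, 3228 in all, were curated from the Consortium for Functional Glycomics database and kept only where the protein sequence was available.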

Fuc(a1-2)Gal(b1-3)GalNAc = target: Fuc(a1-2)Gal(b1-3)GalNAc
How it was run: as §1

[1] = target: Fuc(a1-2)Gal(b1-3)GalNAc(a1-3)[Fuc(a1-2)]Gal(b1-4)Glc
How it was run: as §1

[2] = target: Fuc(a1-2)Gal(b1-3)GalNAc(a1-3)[Fuc(a1-2)]Gal(b1-4)GlcNAc
How it was run: as §1

[3] = target: Fuc(a1-2)Gal(b1-3)GalNAc(b1-3)Gal
How it was run: as §1

[4] = target: Fuc(a1-2)Gal(b1-3)GalNAc(b1-3)Gal(a1-4)Gal(b1-4)Glc
How it was run: as §1

[5] = target: Fuc(a1-2)Gal(b1-3)GalNAc(b1-4)[Neu5Ac(a2-3)]Gal(b1-4)Glc
How it was run: as §1

Fuc(a1-2)Gal(b1-3)GlcNAc = target: Fuc(a1-2)Gal(b1-3)GlcNAc
How it was run: as §1

[6] = target: Fuc(a1-2)Gal(b1-3)GlcNAc(b1-2)Man(a1-3)[Fuc(a1-2)Gal(b1-3)GlcNAc(b1-2)Man(a1-6)]Man(b1-4)GlcNAc(b1-4)GlcNAc
How it was run: as §1

[7] = target: Fuc(a1-2)Gal(b1-3)GlcNAc(b1-2)Man(a1-3)[Fuc(a1-2)Gal(b1-3)GlcNAc(b1-2)Man(a1-6)]Man(b1-4)GlcNAc(b1-4)[Fuc(a1-6)]GlcNAc
How it was run: as §1

[8] = target: Fuc(a1-2)Gal(b1-3)GlcNAc(b1-3)Gal(b1-4)Glc
How it was run: as §1

[9] = target: Fuc(a1-2)Gal(b1-3)GlcNAc(b1-3)GalNAc
How it was run: as §1

[10] = target: Fuc(a1-2)Gal(b1-3)GlcNAc(b1-3)[Fuc(a1-2)Gal(b1-3)GlcNAc(b1-6)]GalNAc
How it was run: as §1

[11] = target: Fuc(a1-2)Gal(b1-3)GlcNAc(b1-3)[Gal(b1-4)GlcNAc(b1-6)]Gal(b1-4)Glc
How it was run: as §1

[12] = target: Fuc(a1-2)Gal(b1-3)GlcNAc(b1-3)[Neu5Ac(a2-6)Gal(b1-4)GlcNAc(b1-6)]Gal(b1-4)Glc
How it was run: as §1

[13] = target: Fuc(a1-2)Gal(b1-3)GlcNAc6S
How it was run: as §1

[14] = target: Fuc(a1-2)Gal(b1-3)[Fuc(a1-4)]GlcNAc
How it was run: as §1

[15] = target: Fuc(a1-2)Gal(b1-3)[Fuc(a1-4)]GlcNAc(b1-2)Man(a1-3)[Fuc(a1-2)Gal(b1-3)[Fuc(a1-4)]GlcNAc(b1-2)Man(a1-3)]Man(b1-4)GlcNAc(b1-4)GlcNAc
How it was run: as §1

[16] = target: Fuc(a1-2)Gal(b1-3)[Fuc(a1-4)]GlcNAc(b1-2)Man(a1-3)[Fuc(a1-2)Gal(b1-3)[Fuc(a1-4)]GlcNAc(b1-2)Man(a1-6)]Man(b1-4)GlcNAc(b1-4)[Fuc(a1-6)]GlcNAc(b1-4)[Fuc(a1-6)]GlcNAc
How it was run: as §1

[17] = target: Fuc(a1-2)Gal(b1-3)[Fuc(a1-4)]GlcNAc(b1-3)[Fuc(a1-3)[Gal(b1-4)]GlcNAc(b1-6)]Gal(b1-4)Glc
How it was run: as §1

[18] = target: Fuc(a1-2)Gal(b1-3)[Fuc(a1-4)]GlcNAc(b1-3)[Gal(b1-4)GlcNAc(b1-6)]Gal(b1-4)Glc
How it was run: as §1

Fuc(a1-2)Gal(b1-4)Glc = target: Fuc(a1-2)Gal(b1-4)Glc
How it was run: as §1

Fuc(a1-2)Gal(b1-4)Glc6S = target: Fuc(a1-2)Gal(b1-4)Glc6S
How it was run: as §1

Fuc(a1-2)Gal(b1-4)GlcNAc = target: Fuc(a1-2)Gal(b1-4)GlcNAc
How it was run: as §1

[19] = target: Fuc(a1-2)Gal(b1-4)GlcNAc(b1-2)Man
How it was run: as §1

[20] = target: Fuc(a1-2)Gal(b1-4)GlcNAc(b1-2)Man(a1-3)[Fuc(a1-2)Gal(b1-4)GlcNAc(b1-2)Man(a1-6)]Man(b1-4)GlcNAc(b1-4)GlcNAc
How it was run: as §1

[21] = target: Fuc(a1-2)Gal(b1-4)GlcNAc(b1-2)Man(a1-3)[Fuc(a1-2)Gal(b1-4)GlcNAc(b1-2)Man(a1-6)]Man(b1-4)GlcNAc(b1-4)[Fuc(a1-6)]GlcNAc
How it was run: as §1

[22] = target: Fuc(a1-2)Gal(b1-4)GlcNAc(b1-2)[Fuc(a1-2)Gal(b1-4)GlcNAc(b1-4)]Man(a1-3)[Fuc(a1-2)Gal(b1-4)GlcNAc(b1-2)Man(a1-6)]Man(b1-4)GlcNAc(b1-4)GlcNAc
How it was run: as §1

[23] = target: Fuc(a1-2)Gal(b1-4)GlcNAc(b1-3)Gal(b1-4)GlcNAc
How it was run: as §1

[24] = target: Fuc(a1-2)Gal(b1-4)GlcNAc(b1-3)Gal(b1-4)GlcNAc(b1-2)Man(a1-3)[Fuc(a1-2)Gal(b1-4)GlcNAc(b1-3)Gal(b1-4)GlcNAc(b1-2)Man(a1-6)]Man(b1-4)GlcNAc(b1-4)GlcNAc
How it was run: as §1

B1: SialidaseA (Arthrobacter ureafaciens) (protein)
chain: MRSNSTSAPSLVRRAATGVLTCAVSIGLLAGLGLPAQAAPTPPNSPTLPPGSFSETNLAADRTAANFFYRIPALTYLGNDVVLAAWDGRPGSAADAPNPNSIVQRRSTDGGKTWGPVQVIAAGHVADASGPRYGYSDPSYIYDAEANKVFAFFVYSKDQGFGGSQFGNDDADRNVISSAVIESSDAGVTWSQPRLITSVTKPGTSKTNPAAGDVRSNFASSGEGIQLKYGPHKGRLIQQYAGDVRQADGSNKIQAYSVYSDDHGVTWHKGANVGDRMDENKTVELSDGRVLLNSRDNANRGYRKVAVSTDGGATYGPVSQDTELPDPANNGAIARMFPNAAQGSADAKKLIFTNANSKTGRENVSARVSCDDGETWPGVRTIRSGFSAYSTVTRLADGKFGVLYEGNYTDNMPFATFDDAWLNYVCAPLAVPAVNIAPSATQEVPVTVTNQEATTLSGATATVYTPSGWSATTVPVPDVAPGASVTVTVALTAPADASGPRSLNAAFTTADGRVSQFTFTATTPVAPQVGLTITGSAPARDVAANPYQAGDVLGYTLNVKSTANVAANSVPLTGTFDSGFLPPAAPNCRYNNLAAGASYNCTTAKHTITAADMERGYFVPEATFSITSTTTPSLTKTVQFTGAAVALRDGLISADISGARTDVGRDLATRPYAAGELVPYAFTVKNTSPFVEQVVPTAGNFSPFLPAGAGNCRYLSLPAGQSYECATPRHAVTAEEVEQGFFVPDTTWEVSAAGQSTRTYRINGGEVDLLVRDAALSATVVAEWKDADGDRFASAGDPVTFTYTVGNAGNVALTGLEAPDAGISLPFLAPGDTATATREHVLTAADVAGGSLAASAFEATARNGSKEVTATAEGQPLELKVQPAQPSKEPELTVQDLEDQTPPFDLGTAFKYRTGQKVSLAGLEYGQWYYVYLNKTGYRLGWMFPTTGDTVEFILPPEVRNGRDDVVVLDKDGRRVSFDRLQVTPKGEKI
glycan array binding signal (z-score) (Fuc(a1-2)Gal): -0.056 | glycan array binding signal (z-score) (Fuc(a1-2)Gal(b1-3)GalNAc): -0.618 | glycan array binding signal (z-score) [1]: -0.586 | glycan array binding signal (z-score) [2]: -0.506 | glycan array binding signal (z-score) [3]: -0.841 | glycan array binding signal (z-score) [4]: -0.322 | glycan array binding signal (z-score) [5]: 1.39 | glycan array binding signal (z-score) (Fuc(a1-2)Gal(b1-3)GlcNAc): -0.414 | glycan array binding signal (z-score) [6]: 0.077 | glycan array binding signal (z-score) [7]: -0.16 | glycan array binding signal (z-score) [8]: -0.332 | glycan array binding signal (z-score) [9]: -0.396 | glycan array binding signal (z-score) [10]: -0.453 | glycan array binding signal (z-score) [11]: -0.768 | glycan array binding signal (z-score) [12]: -0.758 | glycan array binding signal (z-score) [13]: -0.849 | glycan array binding signal (z-score) [14]: -0.69 | glycan array binding signal (z-score) [15]: -0.498 | glycan array binding signal (z-score) [16]: -0.524 | glycan array binding signal (z-score) [17]: -0.786 | glycan array binding signal (z-score) [18]: -0.84 | glycan array binding signal (z-score) (Fuc(a1-2)Gal(b1-4)Glc): -0.801 | glycan array binding signal (z-score) (Fuc(a1-2)Gal(b1-4)Glc6S): -0.423 | glycan array binding signal (z-score) (Fuc(a1-2)Gal(b1-4)GlcNAc): -0.44 | glycan array binding signal (z-score) [19]: -0.715 | glycan array binding signal (z-score) [20]: -0.188 | glycan array binding signal (z-score) [21]: -0.135 | glycan array binding signal (z-score) [22]: -0.568 | glycan array binding signal (z-score) [23]: -0.698 | glycan array binding signal (z-score) [24]: 1.3
